Measured values: patent publication US10294303B2, “Method of treating or ameliorating metabolic disorders using binding proteins for gastric inhibitory peptide receptor (GIPR) in combination with GLP-1 agonists” (AMGEN INC., priority 2015, dated 2019)

T1: Rhesus GIPR (Macaca mulatta, UniProt F7E1R9)
T1 construct: expressed in transfected cells
T1 sequence (F7E1R9 26-466): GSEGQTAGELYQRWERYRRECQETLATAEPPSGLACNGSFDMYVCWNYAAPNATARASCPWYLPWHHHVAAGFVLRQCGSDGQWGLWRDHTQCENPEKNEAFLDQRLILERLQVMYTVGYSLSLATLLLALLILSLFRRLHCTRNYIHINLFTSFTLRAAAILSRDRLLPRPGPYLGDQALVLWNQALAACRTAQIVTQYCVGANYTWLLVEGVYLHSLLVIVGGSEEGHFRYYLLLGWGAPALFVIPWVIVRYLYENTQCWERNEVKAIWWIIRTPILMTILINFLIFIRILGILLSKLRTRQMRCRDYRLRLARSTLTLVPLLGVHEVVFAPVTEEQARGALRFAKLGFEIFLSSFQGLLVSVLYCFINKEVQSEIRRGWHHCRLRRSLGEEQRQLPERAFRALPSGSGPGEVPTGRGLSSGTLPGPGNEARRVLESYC

B1: 5C2.015: anti-GIPR antibody, 5C2 family (antibody)
heavy: QVQLVQSGAEVKKPGASVKVSCKASGYTFTGYYIHWVRQAPGQGLEWMGWINPDAGGTDYSQRFQGRVTMTRDTSISTAYMELNSLRSDDTAVYYCAREATIFGMVIVPFDYWGQGTLVTVSSASTKGPSVFPLAPSSKSTSGGTAALGCLVKDYFPEPVTVSWNSGALTSGVHTFPAVLQSSGLYSLSSVVTVPSSSLGTQTYICNVNHKPSNTKVDKKV[human IgG1 Fc with R292C N297G V302C (EU numbers) not written out]
light: DIVMTQSPDSLAVSLGERATINCKSSQSVLSSSNNKNYIAWYQQKPGQPPKLLIYWASTRESGVPDRFSGSGSGTDFTLTISSLQAEDVAVFYCQQYYSTPWTFGQGTKVEIKRTVAAPSVFIFPPSDEQLKSGTASVVCLLNNFYPREAKVQWKVDNALQSGNSQESVTEQDSKDSTYSLSSTLTLSKADYEKHKVYACEVTHQGLSSPVTKSFNRGEC
B2: 12H11.014: anti-GIPR antibody, 12H11 family (antibody)
heavy: B1 heavy with N52S, D54N, A55Q, G57E, D59N, S61A, R63K, G66D, N84S, V106L
light: B1 light with I39L, A57T, S82N, F92Y, S99R
B3: 12H11.013: anti-GIPR antibody, 12H11 family (antibody)
heavy: B1 heavy with N52S, D54N, A55Q, G57E, D59N, S61A, R63K, G66D, N84S, V106L
light: B1 light with I39L, A57T, E61D, S82N, F92Y, S99R
B4: 11C1.010: anti-GIPR antibody, 11C1 family (antibody)
heavy: QVQLVQSGAEVKKPGASVKVSCKASGYTFTGYYIHWVRQAPGQGLEWMGWISPNSGETSYAQKFQDRVTMTRDTSISTAYMELSRLRSDDTAVYFCAREATIFGMLIVPFDYWGQGTLVTVSSASTKGPSVFPLAPSSKSTSGGTAALGCLVKDYFPEPVTVSWNSGALTSGVHTFPAVLQSSGLYSLSSVVTVPSSSLGTQTYICNVNHKPSNTKVDKKV[human IgG1 Fc with R292C N297G V302C (EU numbers) not written out]
light: B1 light with A12S, I39L, K51N, A57T, S82N, F92Y, S99R
B5: 13H12.005: anti-GIPR antibody, 13H12 family (antibody)
heavy: B1 heavy with D54E, A55S, N84S
light: B1 light
B6: 12H11.004: anti-GIPR antibody, 12H11 family (antibody)
heavy: B4 heavy with Q3P, S55Q, S59N, F95Y, A97T
light: B1 light with A12S, I39L, K51N, A57T, E61D, S82N, F92Y, S99R
B7: 11C1.009: anti-GIPR antibody, 11C1 family (antibody)
heavy: B4 heavy with R85S
light: B1 light with I39L, A57T, S82N, F92Y, S99R
B8: 5C2.016: anti-GIPR antibody, 5C2 family (antibody)
heavy: B1 heavy with D54E, A55S
light: B1 light
B9: 2A11.002: anti-GIPR antibody, 2A11 family (antibody)
heavy: QVQLVESGGGVVQPGRSLRLSCAASGFSFSSYGMHWVRQAPGKGLEWVAVIWYDASNKYYEDAVKGRFTISRDNSKNTLFLQVNSLRAEDTAVYYCARGITIFGHGFEYWGQGTLVTVSSASTKGPSVFPLAPSSKSTSGGTAALGCLVKDYFPEPVTVSWNSGALTSGVHTFPAVLQSSGLYSLSSVVTVPSSSLGTQTYICNVNHKPSNTKVDKKV[human IgG1 Fc with R292C N297G V302C (EU numbers) not written out]
light: EIVLTQSPGTLSLSPGERATLSCRASQIFTSTYLAWYQQKPGQAPRLLIYGASSRATGIPDRFSGSGSGTDFTLTISRLEPEDFAVYYCQQYGSSPRFGQGTRLEIKRTVAAPSVFIFPPSDEQLKSGTASVVCLLNNFYPREAKVQWKVDNALQSGNSQESVTEQDSKDSTYSLSSTLTLSKADYEKHKVYACEVTHQGLSSPVTKSFNRGEC
B10: 2A11.005: anti-GIPR antibody, 2A11 family (antibody)
heavy: B9 heavy with A63S
light: B9 light
B11: 2A11.003: anti-GIPR antibody, 2A11 family (antibody)
heavy: B9 heavy with A55G, A63S
light: B9 light
B12: 2A11.004: anti-GIPR antibody, 2A11 family (antibody)
heavy: B9 heavy with A55G
light: B9 light
B13: 2F11: anti-GIPR antibody, 2F11 family (antibody)
heavy: QVQLVESGGGVVQPGRSLRLSCAASGFTFSSYGMHWVRQAPGKGLEWVAVIWYDGSNKYYADSVKGRFTISSDNSKNTLYLQMNSLRAEDTAVYYCARDRTIFGVVLDYWGQGTLVTVSSASTKGPSVFPLAPSSKSTSGGTAALGCLVKDYFPEPVTVSWNSGALTSGVHTFPAVLQSSGLYSLSSVVTVPSSSLGTQTYICNVNHKPSNTKVDKKV[human IgG1 Fc with R292C N297G V302C (EU numbers) not written out]
light: DIQMTQSPSSLSASVGDRVTITCQASQDISNYLNWYQQKPGKAPKLLIYDASNLETGVPSRFSGSGSGTDFSFTISSLQPEDIATYYCQQYDILLTFGGGTKVEIKRTVAAPSVFIFPPSDEQLKSGTASVVCLLNNFYPREAKVQWKVDNALQSGNSQESVTEQDSKDSTYSLSSTLTLSKADYEKHKVYACEVTHQGLSSPVTKSFNRGEC
B14: 18F2.011: anti-GIPR antibody, 18F2 family (antibody)
heavy: QVQLVESGGGVVQPGRSLRLSCAASGFTFSNFGMHWVRQAPGKGLEWVAVIWYDASNENYAD[about 20 residues not written out]MNSLRAEDTAVYYCARDRTIFGVVLGDYWGQGTLVTVSSASTKGPSVFPLAPSSKSTSGGTAALGCLVKDYFPEPVTVSWNSGALTSGVHTFPAVLQSSGLYSLSSVVTVPSSSLGTQTYICNVNHKPSNTKVDKKV[human IgG1 Fc with R292C N297G V302C (EU numbers) not written out]
light: DIQMTQSPSSLSASIGDRVTITCRASQDLRNYLGWYQQKPGKAPKLLIYGASSLQSGVPSRFSGSGSGTEFTLTISSLQPEDFATYYCLQHNNYPFTFGQGTKVDIKRTVAAPSVFIFPPSDEQLKSGTASVVCLLNNFYPREAKVQWKVDNALQSGNSQESVTEQDSKDSTYSLSSTLTLSKADYEKHKVYACEVTHQGLSSPVTKSFNRGEC
B15: 18F2.013: anti-GIPR antibody, 18F2 family (antibody)
heavy: QVQLVESGGGVVQPGRSLRLSCAASGFTFSNFGMHWVRQAPGKGLEWVAVIWYDASNENYAD[about 20 residues not written out]MNSLRAEDTAVYYCARDRTIFGVVLGDYWGQGTLVTVSSASTKGPSVFPLAPSSKSTSGGTAALGCLVKDYFPEPVTVSWNSGALTSGVHTFPAVLQSSGLYSLSSVVTVPSSSLGTQTYICNVNHKPSNTKVDKKV[human IgG1 Fc with R292C N297G V302C (EU numbers) not written out]
light: B14 light with L46R

Molecular target: T1, Rhesus GIPR
Assay: Rhesus GIPR cAMP assay
Assay type: cell-based
Method: A cyclic AMP assay (no. 62AM4PEC CISBIO) was used to determine the potency of anti-GIPR antibodies. 293T cells were grown in suspension and transiently transfected with human GIPR using Lipofectamine 2000 (no. 11668027 Life Technologies). 24 hrs after transfection, antibody was titrated from high to low concentration in black 384 well plates (no. 3712 Corning Life Sciences) with a final volume of 10 uls/well in assay buffer (DMEM no. D5671 Sigma supplemented with 15 mM HEPES and 0.1% Bovine Serum Albumin). GIPR transfected cells were then added to the assay plate at 10,000 cells per well (10 uls/well) in the presence of 1:40 cAMP-d2 (CISBIO kit component). Assay plates were allowed to incubate for 30 minutes at 37′ C., 5% CO2. […] Plates were then incubated at 37° C., 5% CO2 for 30 minutes. Anti-cAMP-Eu3+-Cryptate (CISBIO kit component) was prepared at 1:40 in conjugate and lysis buffer (CISBIO kit component) and 15 uls/well of this solution was added to the assay plates and allowed to incubate for 1 hour at room temperature. Homogeneous time-resolved fluorescence was then collected on a Tecan Genios Pro multimode microplate reader using an excitation wavelength of 320 nm, a lag time of 150 is and an integration time of 50 us. […] Collected data was then reported as a FRET ratio of A665/A620 multiplied by a factor of 10000 as per CISBIO kit insert instructions. Percent inhibition of hGIP binding to transiently expressed GIPR was calculated by subtracting FRET ratio of cells plus hGIP (f1) from FRET ratio of cells plus antibody plus hGIP (f2) divided by FRET ratio of cells plus hGIP (f1) subtracted from FRET ratio of cells alone (f3) multiplied by 100: % Inhibition=[(f2−f1)/(f3−f1)]×100.

Rhesus GIPR cAMP Assay (Conc. mAb @ 60% Inhibition in nM) | Molecule
>[Ab] Tested | B1
>[Ab] Tested | B2
>[Ab] Tested | B3
>[Ab] Tested | B4
>[Ab] Tested | B5
>[Ab] Tested | B6
>[Ab] Tested | B7
>[Ab] Tested | B8
>[Ab] Tested | B9
>[Ab] Tested | B10
>[Ab] Tested | B11
>[Ab] Tested | B12
>[Ab] Tested | B13
>[Ab] Tested | B14
>[Ab] Tested | B15

Substitutions are numbered along the chain they refer to.
